Target: T1, taxol-stabilized microtubules made from PC tubulin
T1 construct: polymer of tubulin dimers; stoichiometries are per tubulin dimer; also called MT; polymerized tubulin
Test: microtubule pelleting assay, gel densitometry, 30 µM polymerized tubulin

T1 sequence (P02550 whole entry, chain 1 of 2): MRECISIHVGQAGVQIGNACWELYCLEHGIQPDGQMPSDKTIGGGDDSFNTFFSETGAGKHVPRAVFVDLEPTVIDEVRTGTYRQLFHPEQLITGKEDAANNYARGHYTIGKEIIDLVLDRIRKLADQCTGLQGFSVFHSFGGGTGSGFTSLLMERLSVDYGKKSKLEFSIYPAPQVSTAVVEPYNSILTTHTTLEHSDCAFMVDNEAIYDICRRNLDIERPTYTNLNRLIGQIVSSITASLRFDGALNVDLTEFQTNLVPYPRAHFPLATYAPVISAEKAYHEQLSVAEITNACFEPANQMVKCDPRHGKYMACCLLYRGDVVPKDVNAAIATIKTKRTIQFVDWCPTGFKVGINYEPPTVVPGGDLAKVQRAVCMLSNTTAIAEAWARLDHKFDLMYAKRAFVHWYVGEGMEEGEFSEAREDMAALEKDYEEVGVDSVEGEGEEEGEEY
T1 sequence (P02554 whole entry, chain 2 of 2, further chain): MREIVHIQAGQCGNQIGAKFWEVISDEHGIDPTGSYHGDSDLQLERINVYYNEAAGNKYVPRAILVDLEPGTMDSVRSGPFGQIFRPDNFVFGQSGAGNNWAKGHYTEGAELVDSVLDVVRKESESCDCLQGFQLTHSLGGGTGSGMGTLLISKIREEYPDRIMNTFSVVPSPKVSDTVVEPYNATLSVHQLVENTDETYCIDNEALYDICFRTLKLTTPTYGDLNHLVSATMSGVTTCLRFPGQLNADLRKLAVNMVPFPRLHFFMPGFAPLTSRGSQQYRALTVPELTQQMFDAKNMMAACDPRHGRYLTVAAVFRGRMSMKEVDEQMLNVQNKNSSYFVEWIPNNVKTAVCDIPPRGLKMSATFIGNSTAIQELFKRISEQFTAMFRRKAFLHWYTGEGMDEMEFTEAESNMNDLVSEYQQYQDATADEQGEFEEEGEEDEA

Kd: 9.4 µM | stoichiometry n (tau/tubulin dimer): 0.31 tau/tubulin dimer
B1: htau23 mutant Ser202-Ala phosphorylated with brain extract (other)
chain: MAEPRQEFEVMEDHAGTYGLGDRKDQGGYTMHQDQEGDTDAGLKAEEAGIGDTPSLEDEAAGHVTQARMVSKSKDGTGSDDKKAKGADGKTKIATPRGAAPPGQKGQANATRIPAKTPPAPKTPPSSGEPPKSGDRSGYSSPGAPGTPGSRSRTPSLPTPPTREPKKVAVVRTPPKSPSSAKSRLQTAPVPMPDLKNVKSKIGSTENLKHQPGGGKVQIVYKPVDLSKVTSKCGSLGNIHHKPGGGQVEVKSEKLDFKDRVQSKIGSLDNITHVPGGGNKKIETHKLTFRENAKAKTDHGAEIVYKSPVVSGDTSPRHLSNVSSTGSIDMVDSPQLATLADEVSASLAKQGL
modifications: phosphorylated in vitro by the brain extract kinase activity

— US20090162336A1 (published 2009)
